Experimental data taken from publication PMC7819943, “Rice protein-binding microarrays: a tool to detect cis-acting elements near promoter regions in rice”.
The list shows a part of the results.

Each sequence was assayed against T1, OsWOX13 (Oryza sativa, UniProt Q5QMM3 1-267) (assay: protein-binding microarray (RPBM); PBS, 2% BSA, 51.3 ng/ul salmon testes DNA, 50 uM zinc acetate, 200 nM TF, 25 C, 1 h; high values mean tight binding). Details: protein: recombinant; tags: N-terminal polyhistidine and DsRed monomer fusion (pET32a); label: CyDye5-dUTP incorporated in the synthesized complementary strand; 3' TTTTT single-stranded linker to array surface; dsDNA, one strand shown.
T1 sequence: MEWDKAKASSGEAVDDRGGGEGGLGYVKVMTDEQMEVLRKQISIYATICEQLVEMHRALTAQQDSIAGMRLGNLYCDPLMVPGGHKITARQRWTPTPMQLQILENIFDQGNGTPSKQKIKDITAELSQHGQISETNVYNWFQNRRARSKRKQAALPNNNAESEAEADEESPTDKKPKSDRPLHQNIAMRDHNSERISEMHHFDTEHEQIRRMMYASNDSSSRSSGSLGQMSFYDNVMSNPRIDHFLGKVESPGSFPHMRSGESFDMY
Summary of the method: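 Transcription factors were each fused at the N-terminus to a polyhistidine tag plus DsRed and expressed in E. coli BL21-CodonPlus before Ni–NTA purification. Binding to a double-stranded custom Agilent array was carried out with 200 nM protein at 25 °C for 1 h in PBS, 2% BSA, salmon testes DNA and 50 µM zinc acetate. The binding signal is per-feature fluorescence intensity, in arbitrary units, on an Axon 4000B scanner.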

| Sequence | binding signal |
| --- | --- |
| ATTAGTTCTATCAAATCAATAATTGAATATATTATCATAACGGAGTCACCTAGTGCAG | 21300 fluorescence intensity (a.u.) |
| GGGAGACGAGGTGTTAATTACTGCTCCTCTGTTTCAAATCCGGAGTCACCTAGTGCAG | 10500 fluorescence intensity (a.u.) |
| TTAACATCAAAATTGAAAGTTTGGTTAAAATTAGAACGATCGGAGTCACCTAGTGCAG | 3820 fluorescence intensity (a.u.) |
| TTTACTCCCGGTTTCTTAATTGTTTCTTAACCGCAGGAACCGGAGTCACCTAGTGCAG | 3790 fluorescence intensity (a.u.) |
| AATGGAATATACTAATTAAATTGCATGGTTAGGGGTTAGGCGGAGTCACCTAGTGCAG | 8100 fluorescence intensity (a.u.) |
| TTTCAAAGTTAACTAAGCAAATTAAAATTTTGGAAGTTTCCGGAGTCACCTAGTGCAG | 6630 fluorescence intensity (a.u.) |
| TTAGATGTTAATAAATTTAGACACATATATATGTTTAGATCGGAGTCACCTAGTGCAG | 8540 fluorescence intensity (a.u.) |
| TAGATACGAAAATTAATTGGAATTTTGGATTTGGATGGGACGGAGTCACCTAGTGCAG | 24500 fluorescence intensity (a.u.) |
| ATAACAGTGATTGATCTGTTAAATATCCGATACGGGTAGGCGGAGTCACCTAGTGCAG | 65200 fluorescence intensity (a.u.) |
| TTGATTATTGTATTTACTGGCTACAATGTTACCTATAGCTCGGAGTCACCTAGTGCAG | 22500 fluorescence intensity (a.u.) |
| TACTTATAAAACTAATTACATAAATGAGATCTAATTCGCGCGGAGTCACCTAGTGCAG | 4070 fluorescence intensity (a.u.) |
| CTGATTTGCAGTTCGTTCGTGCCTCTCACAATCAAACCCCCGGAGTCACCTAGTGCAG | 14300 fluorescence intensity (a.u.) |
| GGTTAATTGTACCTGGTCGCCTGATCGCGTCACTTTACGCCGGAGTCACCTAGTGCAG | 44200 fluorescence intensity (a.u.) |
| CTAGGCCTCAATGATGAGAATAATTTGATCACGCACATCACGGAGTCACCTAGTGCAG | 3300 fluorescence intensity (a.u.) |
| CAATCCGTGATTAGAAACGAGATCATATAGCTATATGGATCGGAGTCACCTAGTGCAG | 29000 fluorescence intensity (a.u.) |
| CATCACCAACCAATCAACGAACAGAGCTGGCGCCGTGCTCCGGAGTCACCTAGTGCAG | 10100 fluorescence intensity (a.u.) |
| GAACCTTTTGATTGATTCTCGTCCTACACGCTTGAAGGCGCGGAGTCACCTAGTGCAG | 38200 fluorescence intensity (a.u.) |
| ACAAATCAATCAATTATAAAGTTTTAAAATTTAATTTTAACGGAGTCACCTAGTGCAG | 26900 fluorescence intensity (a.u.) |
| AGGGCCCTGATGATTAGCAACAAAAGCGGGTGCCTGCCGTCGGAGTCACCTAGTGCAG | 6840 fluorescence intensity (a.u.) |
| CTTGATTCCTCTGTCTATTTAACGATTTGGACGAGGAAGCCGGAGTCACCTAGTGCAG | 25900 fluorescence intensity (a.u.) |
| AATTACATTGACATGTCAATTTACTACATTTCTCTCTTCTCGGAGTCACCTAGTGCAG | 18300 fluorescence intensity (a.u.) |

| Sequence | binding signal |
| --- | --- |
| TAAATTATAAATTATAGATAATATAGCATGTTTGCATGATCGGAGTCACCTAGTGCAG | 24100 fluorescence intensity (a.u.) |
| TGTGATGCTAATTTTATATTTATTAGGACCATAGAATGCACGGAGTCACCTAGTGCAG | 9890 fluorescence intensity (a.u.) |
| ACTAATACCGCTCTAATTTGATGGTCTATTCTATACTCCTCGGAGTCACCTAGTGCAG | 6920 fluorescence intensity (a.u.) |
| ATGATTCACAATTACCGAACCCTGTTTCCCTAGTATCTTTCGGAGTCACCTAGTGCAG | 7420 fluorescence intensity (a.u.) |
| ATGACCCAATCAGTTGTGTCACCCTGCCATTACGCATCTCCGGAGTCACCTAGTGCAG | 4750 fluorescence intensity (a.u.) |
| ACATATACAATTAATTAATTAATACTCCCAAAAGTTCAGTCGGAGTCACCTAGTGCAG | 37800 fluorescence intensity (a.u.) |
| TCACACAATAAATTAAACTTCTAGACTTTGAATCACTCAGCGGAGTCACCTAGTGCAG | 3660 fluorescence intensity (a.u.) |
| CTTCTTAAACAGATTCTTTTCATCTTGAGCCATTGTTGATCGGAGTCACCTAGTGCAG | 4230 fluorescence intensity (a.u.) |
| AAAATTAAATAAAATAGACAATTAAAGTTGGATTAGTAAACGGAGTCACCTAGTGCAG | 4920 fluorescence intensity (a.u.) |
| CTGATTTAATCACCTATATATAGTTAGTGGAGTATATATGCGGAGTCACCTAGTGCAG | 29300 fluorescence intensity (a.u.) |
| TTAAAACTTGTCAATTATATAACCAGAGGGAGTAGGTGTTCGGAGTCACCTAGTGCAG | 14900 fluorescence intensity (a.u.) |
| CGTGATCAATTGACCTTTTGTGCTTCATTATAGATATGATCGGAGTCACCTAGTGCAG | 11000 fluorescence intensity (a.u.) |
| AGTTCAGATTGATGACTTCATCTGTGTTATCAAAATGCATCGGAGTCACCTAGTGCAG | 30500 fluorescence intensity (a.u.) |
| CCCTCAAGAAATAAATTGGCCAATCACTATTGCACAGCCGCGGAGTCACCTAGTGCAG | 20000 fluorescence intensity (a.u.) |
| AGGAAATTTTATTATATATGTATATTACTTCCTCCGTTTCCGGAGTCACCTAGTGCAG | 3190 fluorescence intensity (a.u.) |
| TATTTATCAATTATCCATGACGTAAGTCTTATGCAATATGCGGAGTCACCTAGTGCAG | 11600 fluorescence intensity (a.u.) |
| TTTTAAATTTAAAATAATTAAAACTCAATTAATAATTTGTCGGAGTCACCTAGTGCAG | 31300 fluorescence intensity (a.u.) |
| TTAATGCACTAATCAAGGACTGACGGGCGCCGCGCCACGACGGAGTCACCTAGTGCAG | 9990 fluorescence intensity (a.u.) |
| TCCCTTGATGTGCAGATTAGTTATGTCTTTGCAGGGTAGTCGGAGTCACCTAGTGCAG | 13200 fluorescence intensity (a.u.) |
| CTAGACTTTTAGATAGGATGATGAAATGCGAAAAGTATGGCGGAGTCACCTAGTGCAG | 4060 fluorescence intensity (a.u.) |
| ATTAGGATTAATTAACTTTTCGCCTTGAAGCTCCCGTTGCCGGAGTCACCTAGTGCAG | 24300 fluorescence intensity (a.u.) |
